{"source": "patent US20050233963A1", "about": "(priority 2000, published 2005)", "test_system": "hsp70", "details": "mouse, in vivo, ip", "experimental": "FIG. 8A, depicts an image of a western blot showing hsp72 reactivity with Stressgen SPA 812 polyclonal antibody in liver: lane 1, untreated deer mouse; lane 2, mouse treated with phenylephrine IP (25 μg/kg) 6 hours before sacrifice; lane 3, mouse subjected to stress by placement in metabolic cage, removed 6 hours before sacrifice. Similar results were obtained with BAT. FIG. 8B comprises immunohistochemical analyses of hsp70 expression in adrenal glands (top panels) and BAT (bottom panels), comparing an unstressed mouse (left) with a mouse subjected to stress with phenylephrine (25 μg/kg) 6 hours before sacrifice. […] Original magnification was 200× (adrenals) and 400× (BAT).\nIn the rat and mouse models it is possible to model the signals that activate brown adipose tissue during cold acclimation by administration of adrenergic agents such as phenylephrine. Phenylephrine was injected intraperitoneally at 25 μg/kg and animals were sacrificed by euthanasia at various time points.\nHSPs are activated in deer mice by signals that favor activation of brown adipose tissue (BAT). In the rat and mouse models, it is possible to model the signals that activate BAT during cold-acclimation by administration of adrenergic agents such as phenylephrine. […] Of the antigens studied, only hsp70 was induced in the BAT and liver of stressed deer mice, as assessed by IHC staining and/or western blotting.", "data": [{"smiles": "CNC[C@H](O)c1cccc(O)c1", "note": "[phenylephrine]", "values": [{"measurement": "hsp72 expression in the liver, western blot", "result": "had increased"}]}]}
